Here are results for 80 molecules from ChEMBL document CHEMBL1201862, “PubChem BioAssay data set” (2004).

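Exposure lasted 48 hours, with cells grown in 96-well plates and compounds tested at five concentrations. GI50: concentration for 50% inhibition of growth.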 The source made the active and inactive calls. Rule as the data show it: active = GI50 up to about 1.1 µM and inactive = higher.

The subject of this assay is NCI-H322M. The assay is described as follows: NCI-60 cell line screen, 48 h.
On to `COc1ccc(/C=C2\N=C(SC)NC2=O)cc1`, for which the GI50 is inactive: > 100 µM.
As to `O=C(Nc1cccc(Cl)c1)Nn1cnnc1`, the GI50 was inactive: > 100 µM.
In the case of `Nc1nc(SCc2ccccc2Cl)c2ncn(C3OC(CO)C(O)C3O)c2n1` (stereo not given), the GI50 was inactive: > 100 µM.
Regarding `O=S(=O)(c1ccccc1)C1CN2OC1(S(=O)(=O)c1ccccc1)CC21CCCCC1` (stereo not given), the GI50 is inactive: > 100 µM.
Take `Cc1ccc([N+](=O)[O-])cc1S(=O)(=O)Nc1ccc(C2=NOC(c3ccccc3O)C2)cc1` (stereo not given): the GI50 is inactive: 28.3 µM.
Consider `COc1cc2c(cc1O)C1Cc3ccc(OC)c(O)c3C(C2)N1C` (stereo not given), for which the GI50 was inactive: > 100 µM.
`N/N=C1/C(=O)N(c2ccc(Cl)cc2)C(=O)C(=O)C1c1nc2ccccc2s1` (stereo not given): the GI50 is inactive: > 100 µM.
On to `O=S(=O)(/C=C/C=C/[S+]([O-])c1ccccc1)c1ccccc1` (stereo not given), for which the GI50 was inactive: > 10 µM.
Turning to `CCOC(=O)C1(C)CCC(C(=O)OC)C1=O` (stereo not given), the GI50 was inactive: > 100 µM.
Consider `CC(C(=O)c1ccc(Cl)cc1)/C(=N/NC(=O)NN)C(=O)Nc1cccc(C(F)(F)F)c1` (stereo not given), for which the GI50 was inactive: > 100 µM.
In the case of `CN(C)CC1CCC/C(=C\c2ccc(OC(=O)/C=C/c3ccc(Cl)cc3)cc2)C1=O` (stereo not given), the GI50 was inactive: 17.5 µM.
For `Cc1sc(Nc2ccc(Nc3nc(-c4ccccc4)c(C)s3)cc2)nc1-c1ccccc1`, the GI50 was inactive: > 100 µM.
As for `NC(=O)/C=C/c1c[nH]c2nccnc12`, the GI50 was inactive: 2.01 µM.
As for `CC(N/N=N/c1ccc(-c2nc3ccccc3[nH]2)cc1)C(=O)O` (stereo not given), the GI50 was inactive: 60 µM.
For `Oc1c(N2CCCCC2)cc(-c2cc(N3CCCCC3)c(O)c3ccccc23)c2ccccc12`, the GI50 is inactive: 19.2 µM.
Under `COC(=O)C1(Cc2ccccc2)Cc2ccccc2C1=O` (stereo not given) stands inactive: 65.8 µM.
In the case of `CCCCCCCCCCCCCC(=S)N/C=C/OC` it was inactive: 34.3 µM; in that of `C=C1C(=O)O[C@H]2C1C[C@@H](O)/C(C)=C/CC[C@@]1(C)O[C@H]21` (stereo not given in full), inactive: > 56.8 µM.
Under `O=C(Cn1cc(I)c(C(=O)NCC(O)CO)n1)NCC(O)CO` (stereo not given) stands inactive: > 100 µM; under `CC(CO)(CO)N1C(=O)C2C3c4ccccc4C(c4ccccc43)C2C1=O` (stereo not given), inactive: > 100 µM.
On to `CCCC(=O)NC(Nc1ccc(S(=O)(=O)Nc2ccc(OC)nn2)cc1)(C(F)(F)F)C(F)(F)F`, for which the GI50 was inactive: > 100 µM.
In the case of `O=C1OC(c2ccc(Cl)c3ccccc23)c2ccccc21` (stereo not given) it was inactive: > 100 µM; in that of `COC(=O)c1cn(CCCCO)nn1`, inactive: > 100 µM; in that of `CCOc1ccc(NC(=O)CCC(=O)NN)cc1`, inactive: > 100 µM.
As to `CN(C)c1ccc(/C=c2\sc3nnc(-c4ccco4)n3c2=O)cc1`, the GI50 was inactive: > 100 µM.
Regarding `N=C(N)NCCCS(=O)(=O)Nc1ccc(Nc2c3ccccc3nc3cc([N+](=O)[O-])ccc23)cc1`, the GI50 is inactive: 10.5 µM.
Regarding `CC(C)=CCNc1ncnc2c1ncn2CCC(=O)OC(C)(C)C`, the GI50 is inactive: > 100 µM.
As for `Cc1cc(CS(=O)(=O)/C=C/c2ccccc2[N+](=O)[O-])c(CS(=O)(=O)/C=C/c2ccccc2[N+](=O)[O-])cc1C`, the GI50 is inactive: > 87.7 µM.
Consider `Cc1ccc(/C=N/NS(=O)(=O)c2ccc(/C=C3\NC(=O)NC3=O)cc2)cc1`, for which the GI50 was inactive: > 100 µM.
Consider `Cc1cc2nc3[nH]nc(N)c3nc2cc1C`, for which the GI50 is inactive: > 100 µM.
`Cc1cn(CCCCCCOC(=O)NC(CCCNC(=N)N)C(=O)O)c(=O)[nH]c1=O` (stereo not given): the GI50 is inactive: > 100 µM.
Take `COc1ccc(-c2c3c(nc4[nH]c(=S)[nH]c(=S)c24)CCCC3)cc1OC`: the GI50 was inactive: 45.7 µM.
Under `B.CC(=O)OC1CN2CCC1CC2` (stereo not given) stands inactive: > 100 µM; under `COc1cc(C2c3cc4c(cc3OC(NNc3ccccc3)C2C)OCO4)cc(OC)c1OC` (stereo not given), inactive: 1.38 µM; under `COc1ccccc1-n1cnc2c1=NC(C)(C)NC=2C(N)=O`, inactive: > 100 µM.
With `ClCCN1CCC2(CC1)SSC1(CCN(CCCl)CC1)S2`, the GI50 is inactive: 84.9 µM.
Consider `N#CC1C(=S)NC(c2ccccc2)=CC12CCCCC2` (stereo not given), for which the GI50 was inactive: 21.9 µM.
Consider `Cc1ccccc1[P+](C)(c1ccccc1C)c1ccccc1C`, for which the GI50 is inactive: 18.4 µM.
Regarding `COc1ccc(N2CCN(Cc3c(C(C)=O)[n+]([O-])c4ccccc4[n+]3[O-])CC2)cc1`, the GI50 is inactive: 21.9 µM.
With `COc1cc(NCc2ccc3n2-c2ccccc2OC3)cc(OC)c1OC`, the GI50 was inactive: 66.1 µM.
For the molecule `O=C1CC(=O)c2c(O)cc(O)c(c2O)-c2c(ccc(O)c2O)C2=CC(=O)c3c(O)cc(O)c(c3O2)-c2c1ccc(O)c2O.O=C1CC2(O)Oc3c1c(O)cc(O)c3-c1c(ccc(O)c1O)-c1cc(=O)c3c(O)cc(O)c(c3o1)-c1c2ccc(O)c1O`, the GI50 is inactive: > 50 µM.
Under `COc1cc(C)cc(C(=O)/C=C/c2ccccc2)c1O` stands inactive: 23.8 µM.
In the case of `CN(/N=N/c1[nH]cnc1C(N)=O)C1CCCCC1` it was inactive: > 100 µM; in that of `CC1/C(=N\O)CC(c2ccccc2)N(C)C1c1ccccc1` (stereo not given), inactive: > 100 µM; in that of `CCOC(=O)Nn1c(C)nnc1CC#N`, inactive: > 100 µM.
Consider `NNC(=O)c1ccccc1Nc1ccccc1C(=O)NN`, for which the GI50 is inactive: > 100 µM.
Regarding `N#CC1=C(O)NC(O)=C(C#N)C1c1c(Cl)cccc1Cl`, the GI50 is inactive: 28.4 µM.
In the case of `Nn1c(Sc2nc3ccccc3c(=O)n2N)nc2ccccc2c1=O` it was inactive: 21.3 µM; in that of `Cc1cc(C(C)(C)C)c(OCCCN2CCOCC2)c(C(C)(C)C)c1`, inactive: 18 µM.
As for `COc1cc(-c2cc(=O)c3cc4c(cc3[nH]2)OCO4)cc(OC)c1O`, the GI50 was inactive: > 10 µM.
Regarding `CCC/C(=N\NC(=S)N1CCN(c2ccccn2)CC1)c1ccccn1`, the GI50 is active: 0.00364 µM.
For the molecule `Cc1ccc2nc(NC(=O)C(=O)C(C#N)c3nc4ccccc4s3)sc2c1` (stereo not given), the GI50 is inactive: 37.8 µM.
Take `CC/C(=N\NS(=O)(=O)c1ccccc1)c1ccccc1`: the GI50 was inactive: > 100 µM.
Turning to `COc1ccc(C2C3=C(COC3=O)Oc3cc4c(cc32)OCO4)c(OC)c1` (stereo not given), the GI50 was inactive: 42.1 µM.
Consider `CC1(C)O/C(=C\c2ccccc2)C(=O)/C(=C/c2ccccc2)O1`, for which the GI50 was inactive: > 100 µM.
Regarding `C[C@]12CC[C@H](O)CC1=CC[C@@H]1[C@@H]2CC[C@]2(C)C(=O)[C@@H](N3CCOCC3)C[C@@H]12`, the GI50 is inactive: > 100 µM.
Under `O=C(O[C@H]1[C@@H](O)[C@H](n2cnc3c(Cl)ncnc32)O[C@@H]1COC(c1ccccc1)(c1ccccc1)c1ccccc1)c1ccccc1` stands inactive: 15.3 µM; under `C=CCCCCCCCCC(=O)NS(=O)(=O)c1ccccc1`, inactive: > 100 µM; under `CCCc1n[nH]c(CCC(=O)N(Cc2ccccc2)Cc2ccccc2)c1CC`, inactive: > 100 µM.
As for `CCCCn1c2c(n(CCCC)c1=[Se])-c1c(n(CCCC)c(=[Se])n1CCCC)S[Se][Se]S2`, the GI50 is inactive: 15.5 µM.
In the case of `CCCCOC(=O)NC(=O)c1cn(CCCOC(=O)CCCCCCCCC(=O)OCCCn2cc(C(=O)NC(=O)OCCCC)c(=O)[nH]c2=O)c(=O)[nH]c1=O` it was inactive: > 100 µM; in that of `S=C(N/N=C(\C(=N/NC(=S)N1CCCCC1)c1ccccn1)c1ccccn1)N1CCCCC1`, inactive: 35.7 µM.
In the case of `COc1cc(C2C3=C(COC3=O)OC(C)(C)Oc3cc4c(cc32)OCO4)cc(OC)c1O` (stereo not given) it was inactive: 2.49 µM; in that of `O=C(OC(/C=C/c1ccccc1)P1(=O)N(Cc2ccccc2)[C@@H]2CCCC[C@H]2N1Cc1ccccc1)c1ccccc1` (stereo not given in full), inactive: 6.03 µM; in that of `CC1=CC(=O)N(n2c(-c3ccccc3)n[nH]c2=O)C1=O`, inactive: > 100 µM.
In the case of `Cc1cccc(NS(=O)(=O)c2ccc(/N=N/c3c(O)c(C(=O)O)cc4ccccc34)cc2)n1`, the GI50 is inactive: > 100 µM.
On to `Cc1ccc(S(=O)(=O)OC2C(O)C(O)OC2C(c2cc(O)c3c(c2O)C(=O)c2ccccc2C3=O)c2cc(O)c3c(c2O)C(=O)c2ccccc2C3=O)cc1` (stereo not given), for which the GI50 was inactive: > 10 µM.
For the molecule `Nc1ccccc1N/C=C\C(=O)C(Cl)(Cl)Cl`, the GI50 is inactive: 33.7 µM.
As to `COc1ccc(NC(=O)CC(=O)n2nc(C)c(/N=N/c3cccc(C)c3)c2C)cc1`, the GI50 was inactive: > 100 µM.
As for `O=P1(Oc2ccc(Cl)cc2Cl)Oc2ccc3ccccc3c2-c2c(ccc3ccccc23)O1`, the GI50 was inactive: 23.7 µM.
Consider `COC(=O)[C@]12CC[C@H]3CN(C(=O)OCc4ccccc4)[C@H]([C@H]31)[C@H](c1ccco1)N2S(=O)(=O)c1ccc(C)cc1`, for which the GI50 is inactive: 30.9 µM.
On to `N#CC1CC2(CCN1C(=O)c1ccccc1)OCCO2` (stereo not given), for which the GI50 was inactive: > 100 µM.
Consider `COc1nc(=O)n(C2CC(F)C(CO)O2)cc1C` (stereo not given), for which the GI50 is inactive: > 100 µM.
`CCN1CC2(C)CC[C@@H](OC)C34[C@@H]2[C@H](OC(C)=O)C2(OCO[C@@]25C[C@H](OC)C2C[C@]3(O)[C@@H]5[C@H]2O)[C@H]14`: the GI50 is inactive: > 100 µM.
Regarding `CC(C)=CCC[C@]1(C)C=Cc2c(O)c3c(c(CC=C(C)C)c2O1)O[C@]12C(=C[C@@H]4CC1C(C)(C)O[C@@]2(C/C=C(/C)C(=O)O)C4=O)C3=O`, the GI50 was inactive: 2.16 µM.
On to `Nc1cccc(-c2cc(O)c3cc4c(cc3n2)OCO4)c1`, for which the GI50 is inactive: > 25.3 µM.
In the case of `c1ccc([P+](CCNCCNCC[P+](c2ccccc2)(c2ccccc2)c2ccccc2)(c2ccccc2)c2ccccc2)cc1`, the GI50 is inactive: > 100 µM.
With `CCCOc1ccc(/C=C\c2cc(OC)c(OC)c(OC)c2)cc1`, the GI50 was inactive: 95.9 µM.
`COc1cc2oc(-c3ccc(O)cc3)cc(=O)c2c(OC)c1OC`: the GI50 was inactive: > 100 µM.
As for `CCOC(=O)Nc1cc2c(c(N)n1)N=C(c1ccc(Cl)cc1Cl)CN2`, the GI50 is active: 0.0716 µM.
